# Test results taken from the supplement of paper PMC10338343.
# ± gives the standard deviation. The entries are a selection whose mix differs from that of the whole data set.
# Tested on: MIWI (PIWIL1) piRISC loaded with piRNA #1 (30 nt)
# Experiment: pre-steady-state target cleavage rate (min^-1); MIWI and MILI are mouse PIWI proteins and EfPiwi is from a freshwater sponge; tags in brackets are library labels; higher = faster piRNA-guided slicing of the target
# Conditions: guide: piRNA #1 5'p-UGAGGUAGUAGGUUGUAUAGUAUCCAGAGG; auxiliary factor: 500 nM mouse GTSF1
# How it was run: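 Three pooled Cleave-'n-Seq trials supplied the data, with k3 capped at 0.0001 min^-1. In each, […] transcribed, DNA-blocked target RNA library and 1 nM active affinity-purified piRISC with one synthetic guide reacted in HEPES–potassium acetate buffer at 33 °C for 0–8 or 0–960 min, with or without 500 nM GTSF1 partner protein. Uncleaved targets were sequenced and normalised to depth and to weakly complementary targets. A burst-and-steady-state fit provided the pre-steady-state cleavage rate.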
# 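Note: 1 nM active piRISC with 0.1 nM target library at 33 °C single turnover.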
row,Sequence,pre-steady-state target cleavage rate
1,GGAGUGGAUUCUAUACAACCUACUACGUCA,0.522 ± 0.048
2,GGUCUGGAUACUAUAAACCUACUACCUCA,0.916 ± 0.11
3,GGAGACCUAACUAUUACAACCUACUACCUCA,0.319 ± 0.039
4,GGAGACCUAAGUAUACAACCUAGUACCUCA,0.0434 ± 0.0083
5,GGAGACGCAUACUAUACAACCUACUACCUCA,1.91 ± 0.14
6,CCUCUGGAUACUAUACAACCUACUACAUCA,1.5 ± 0.074
7,GGAGACCUAUCUAUACAACCUACAACCUGA,0.124 ± 0.031
8,CCUCUGGUUACUAUACAACCUUCUACCUCA,0.907 ± 0.044
9,GCUCUGGAUACUAUACAACGUACUACGUCA,0.762 ± 0.078
10,GGAGUGGAUACUUUACUACCUACUACCUCA,0.884 ± 0.077
11,GGACUGGAUACUAUAGAUCCUACUACCUCA,1.16 ± 0.078
12,GGACUGGAUACUAUACAACCUACUACCUUCA,0.946 ± 0.089
13,GCUCUGGAUACUAUACAACCUACUACGUCA,1.23 ± 0.072
14,GGUCUGGAUUCUAUACAACCAACUACCUCA,0.114 ± 0.0099
15,GGUCUGGAUACUGAUACAACCUACUACCUCA,1.67 ± 0.11
16,GGAGUGGAUUCUAUAGAACCUACUACCUCA,1.28 ± 0.078
